The other results are listed elsewhere or left out. At the low end of the ranking the order means little. The protein was read in a cell extract, so binding may be indirect.

In the assay the target is T1, HNF4alpha8 (COS-7 nuclear extract) (UniProt P41235-5).
T1 sequence: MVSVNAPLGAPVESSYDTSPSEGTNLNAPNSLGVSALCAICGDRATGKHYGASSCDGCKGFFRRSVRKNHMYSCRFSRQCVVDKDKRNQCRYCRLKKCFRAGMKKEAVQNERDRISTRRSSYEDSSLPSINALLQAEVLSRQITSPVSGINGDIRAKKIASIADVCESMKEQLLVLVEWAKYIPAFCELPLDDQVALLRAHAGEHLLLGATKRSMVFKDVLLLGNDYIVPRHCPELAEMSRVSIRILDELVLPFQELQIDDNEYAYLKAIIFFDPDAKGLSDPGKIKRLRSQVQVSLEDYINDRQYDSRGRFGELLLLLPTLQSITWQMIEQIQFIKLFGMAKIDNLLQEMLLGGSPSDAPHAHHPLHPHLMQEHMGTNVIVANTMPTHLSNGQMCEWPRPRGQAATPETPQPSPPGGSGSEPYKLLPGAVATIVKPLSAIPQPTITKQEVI
Nature of the assay: protein-binding microarray. To be noted: COS-7 nuclear extract on double-stranded Agilent 4x180k PBM; binding buffer, salt, pH and temperature not given; high values mean tight binding; double strand, one strand shown; sequences stand for … in …GCCTAGGGAGATTAGAGTATCGGTCGA
Turning to AGCCTTTGAGAAGCAGGAGCATGGGGGATG, the binding signal (log2 normalized intensity) is -1.42. In the case of AGCCCCTTTTGGAATCCCCATCTCACCATA it was 3. To AGAGGTCAGCCCACAGGTCAATCCAGGTTG belongs 1.54; to GAATGTAGACCTTTACCACCCTCACAGCTC, -0.135. As for TTCAGCGGTGCATTTTTTTCCACCCTCCCC, the binding signal (log2 normalized intensity) was 4.4.

CACATTAACTGTGCTTCTGGGGTATAAAGG: the binding signal (log2 normalized intensity) was 1.67. To GTTGTACCTTGACCCAAGAAATAAAAACAG belongs 2.84; to TGAGAGGCCAGTTTCTCCACAGCCTCACCA, -1.36. With TCATTCTAACCCAAATGCAAATACCTATAG, the binding signal (log2 normalized intensity) was determined as 1.26. As to AAAAAAAAAGGCAGTCCTTAGATCCACGGA, the binding signal (log2 normalized intensity) is -1.39.

As for AATCCTGCTCCTTCTGAATCTGTTCCACCT, the binding signal (log2 normalized intensity) amounted to 0.808. As for GAGCAAAGGGCATGGAGGATTTAGATAACA, the binding signal (log2 normalized intensity) was 0.728. For GGAGCCACTGAAGTGAGTTAATAAATACTG, the binding signal (log2 normalized intensity) is -1.4. In the case of GCTGATTACAGGTTGCAGTAAAGAAACTGG it was -1.21. To CAGCCTGGAGGAGGGCGAGGCCGAGCCTCA belongs -1.12; to TGAAGTCAAAGGAGGCATTCCTGCAATCAG, -1.31; to TTGCCTAACTGCTGCATGTCATGACCTTCA, 3.69. To AGTGGAGAAACCTGACAGACTGGACTGCTG belongs -0.355; to GTTCTCTAGAAACAGAGCCCAAGGCAAAGC, -1.27; to AGGTCTAAGTAAACTGTTCAAGACTTTCAG, -1.24. AAAAATGATGCCTGACTCAAGAAAGGATCT: the binding signal (log2 normalized intensity) was -1.22.

Regarding GCTAGCTGAGAGACTTTATCCGTATAACAA, the binding signal (log2 normalized intensity) was -1.27. TTTCAACATCCTCTCAGGTCAAAGTTTGCC: the binding signal (log2 normalized intensity) was determined as 3.91. To GTGGGTTCTAGGTAATCACCCTCTCCACCC belongs 1.93; to TTTTTTTTAACGGTCTGCCCTCTTGTCCTT, 4.14; to GATCTGCAGGTAGGGGTGGGATGGGGAGCA, -1.27. For CTGCTGGGAGTTGTAGTTTTTTGGGCCCCT, the binding signal (log2 normalized intensity) was found to be 1.52. Consider AGCAAAGGGCAGATAACAAGGGCATGTAAA, for which the binding signal (log2 normalized intensity) was -1.13. In the case of CTCCAAGGTACTGTGAACTCCAGCTGGGCA it was -0.0636; in that of CCAACACAGAAGCCTTTTGTTCTTTGTGTG, 1.47.

As for CAAAGGTCAACAGCCAGCCTCAAAGATCAA, the binding signal (log2 normalized intensity) is 3.33.

For the sequence CAGATCCACATCGAAGGCCAAGGGATTTCA, the binding signal (log2 normalized intensity) was -1.36. In the case of CAAAGTACACTTGGAGAAAAAAAACCATTG it was -1.27; in that of GTGGAGGGCGTGTAGGGAGTGGTTCCCACA, -1.11.

In the case of AATGTCAGCCTGCTCAGGGAGAAGCAAATA, the binding signal (log2 normalized intensity) was -1.3.

In the case of CCCCTCCCCCACACAGACAAAGACAGAGAG, the binding signal (log2 normalized intensity) turned out to be 3.97. In the case of GAAGATGCAACAGTGACCCAAATATGGTCC it was 0.641; in that of CCTTTAGAGGGCAAGGATCAGCCCCACACT, 2.48.

On to ATGTGGTCCTAAGACTAACCTTTGACCATC, for which the binding signal (log2 normalized intensity) turned out to be 8.15.

AATTCCAGGATCCAAGATCCAACTCTGAAG: the binding signal (log2 normalized intensity) is -1.21.

As for TCTGCTATCTAAAAGCTTATCTGCACAATG, the binding signal (log2 normalized intensity) is -1.27. In the case of TGTGCTGTGGCTGCCAAGACACAGAGAAAA it was -1.42. In the case of TTTCTTGTCTGCCCCAGGGCTTTGCAGGGA it was 0.902; in that of AATAGAGCTCTAAACCACCCAATCCTGCAG, 1.57; in that of GGGGGCAGGGCTGGTCGGATGGCCGTGGGT, -0.311. In the case of CCAAAAGCTTTACTAAAACAGGGAGCAGGC it was -1.38; in that of TATCTTGATCAGAAAAGAAAGTGAGGAATG, -1.28; in that of CTCACTGACTTCCATCAATGAAGCATATCA, -1.37.

On to AACCTTTGCCCCCCTGGGCTCAAGCGATCC, for which the binding signal (log2 normalized intensity) is 6.03. For AAAGTCCAACACAGAAGCCTTTTGTTCTTT, the binding signal (log2 normalized intensity) amounted to 2.15. On to ACTTTGCTGTGTCCCACAGGGAAAGTATGG, for which the binding signal (log2 normalized intensity) is 0.585. In the case of AAGGAGCCTAACTTTGATAGGCACAATCAG it was -1.34; in that of AAAACTACACTCTTGCTAAACCCTCTAACA, -0.606. To TGCCCGAGCTGCCCTTTATCTCCTCTCTTC belongs 1.69. In the case of TATGACGGTGTATGCTCTCAGTGCTAACAC it was -0.868; in that of AAGGAGTGGAGGAAGGAAGAAGTGTTAAGG, -1.3; in that of AACACACCATGTACAGAGAGCATTCTGCTG, -1.32. Regarding TTTCTGTATCTCTTCGCCTTGCTTATCTGG, the binding signal (log2 normalized intensity) was 1.38. As to TCTCTGAGCAGTCAAACTGGTTTCTTGTCT, the binding signal (log2 normalized intensity) is 0.977.

For CCACAGAATCGCCCCACCCTGCCTGGGTAG, the binding signal (log2 normalized intensity) was found to be 1.23. In the case of ACGGCAAGCCATAGTTAACCCAGAAGACTG it was -1.24; in that of CCACTCCAGCCTCTCCACCAGGGGACCAGG, -1.48. In the case of TGTCCTTTGTCCCCCACCTGTGAAGATAAG it was 4.07. To CCTTCACTCTGGGGCAATAACCCTAGACAC belongs -0.247. For GTTCTCCTTTCTGCCCTTTGAAGCATGTGA, the binding signal (log2 normalized intensity) was determined as 3.43.

Turning to GGCAGTGACTGGACCACGATCAGCCAGCAG, the binding signal (log2 normalized intensity) was -1.39. In the case of CCGTGGCTGGAACTCCTCCGGTCAAGATCA it was 0.0377; in that of TAGAACCCAGGCACAGGTCCTACTCACACT, -1.18. In the case of GACTCTTGGACTCCCTGAAGAAACAGTCTT it was 0.338; in that of TCAGGGGTCAATGTGCACATTCGAAGTTTT, 4.86; in that of CACGTGCAAAGTACAAAGTACAGAGATGGC, 3.78.

For the sequence GACCTTGTTTTCAATGACTACCTGTTACCC, the binding signal (log2 normalized intensity) amounted to 1.81.

GGAGTTTGTACTTTATCCTACAAGGGAGAT: the binding signal (log2 normalized intensity) turned out to be 2.77.

The values are drawn from PMC10726135.
